Assay results published in PubChem BioAssay AID1347073 (National Center for Advancing Translational Sciences (NCATS), 2019).
In all, about 45,000 compounds went through this assay and about 200 (0.44%) were called active. Another 7% or so got no clear call; they are omitted. Calls come from the whole dose curve; as a rule, active = well fitted activation curve with a large enough effect; inconclusive = small, poorly fitted or top-dose-only effect; inactive = no such curve, though single readings can be large or run the other way. Some of the results follow.

Assay: qHTS of TDP-43 Inhibitors: NCGC Sytravon Library Screen; note: 0% is about no effect; nearly all actives have a fitted effect of over 55% in size
Conditions: yeast TDP-43 toxicity rescue, BacTiter-Glo growth, 24 h; series mostly up to 46.1 µM; growth rescue (activation): at the top concentration
Description: The goal of this project is to identify new chemical probes capable of reversing the toxicity associated with TDP-43 which is associated with frontotemporal lobar degeneration and amyotrophic lateral sclerosis. These compounds will provide a complementary approach to deciphering the tangled mechanisms of toxicity and protection that we have uncovered through genome-wide genetic screens and are beginning to uncover in a large-scale proteomics analysis with mass spectroscopy. To this end, a miniaturized assay was developed to be screened against the Molecular Libraries Small Molecule Repository (MLSMR) to discover TDP-43 inhibitors. Please note that in the set-up this yeast-based assay compounds that inhibit as TDP-43, have a read-out as activators. NIH Chemical Genomics Center [NCGC] NIH Molecular Libraries Probe Centers Network [MLPCN] Assay Submitter (PI): Susan Lindquist, Whitehead Institute/MIT MLPCN Grant: R21 NS060957
Dispense 2.5 microL yeast galactose medium per 1536-well plate, pin compound, dispense 2.5 microL TDP-43 expressing yeast in galactose medium at OD600=0.02 (pregrown in raffinose medium to mid-log phase) per well, incubate for 24 hr at 30 deg C, and cell growth will be measured using 5 microL of Bactiter/Glo reagent to entire plate and read using Luminescence Protocol in ViewLux.

Row | Structure (SMILES) | growth rescue (activation)
1 | Cc1ccccc1N/N=C/c1sc(=O)n(Cc2cccc(C(=O)O)c2)c1Cl | inactive: 11.1%
2 | COc1cc(/C=C2/C(=O)NN(c3ccc(Cl)cc3)C2=O)cc(Br)c1O | inactive: -2.3%
3 | O=C(O)COc1ccccc1/C=N/NC(=O)CSc1nnc(SCc2cccc3ccccc23)s1 | inactive: -6.35%
4 | CC(C)(C)c1ccc2c(c1)OC(C(=O)N/N=C\c1ccc(-c3cccc(C(=O)O)c3)o1)CO2 (centres undefined) | inactive: 26.9%
